In PubChem BioAssay AID360 (National Center for Advancing Translational Sciences (NCATS), 2006):
Hit rate of the full screen: of about 48,000 compounds, about 550 (1.1%) were called active. Not shown: some 4% with an inconclusive outcome. Rule as the data show it: active = potency below about 15 µM; inconclusive = mostly about 16 µM to 33 µM; inactive = weaker than that. The list shows a part of the results.

target: Lysosomal acid glucosylceramidase (Homo sapiens) (UniProt P04062); experiment: Glucocerebrosidase; settings: purified enzyme, resorufin glucoside fluorescence (screen aimed at inhibitors), 20 min; series mostly up to 77 µM;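 also: the screen sought inhibitors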
How it was run: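 Compounds titrated against 0.2 nM normal enzyme, 30 uM resorufin beta-D-glucopyranoside substrate, citrate/phosphate buffer with taurocholate and tween-20, pH 5.9. Reaction ran 20 min at room temperature; fluorescence (Ex 548/Em 600) gave AC50.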
Potency is read from the fitted curve at half-maximal effect.

UniProt P04062, sequence (P04062 whole entry, looked up): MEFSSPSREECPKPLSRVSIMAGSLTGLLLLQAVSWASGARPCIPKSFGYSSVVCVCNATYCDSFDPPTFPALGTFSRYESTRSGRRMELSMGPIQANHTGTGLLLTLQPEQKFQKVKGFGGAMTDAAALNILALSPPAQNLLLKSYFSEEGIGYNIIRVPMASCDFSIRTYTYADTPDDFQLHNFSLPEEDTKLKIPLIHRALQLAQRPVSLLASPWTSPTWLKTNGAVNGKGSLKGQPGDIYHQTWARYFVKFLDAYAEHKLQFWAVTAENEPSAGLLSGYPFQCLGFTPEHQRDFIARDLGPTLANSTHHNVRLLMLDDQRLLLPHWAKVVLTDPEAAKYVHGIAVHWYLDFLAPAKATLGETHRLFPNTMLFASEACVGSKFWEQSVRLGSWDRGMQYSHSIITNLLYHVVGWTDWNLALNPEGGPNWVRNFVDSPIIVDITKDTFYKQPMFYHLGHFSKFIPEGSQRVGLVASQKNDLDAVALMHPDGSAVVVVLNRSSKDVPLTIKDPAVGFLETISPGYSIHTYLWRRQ

Potency, inactive:
CCOC(=O)c1c(C2CC2)csc1NC(C)=O > 76.9 µM
CC(=O)Nc1ccc(S(=O)(=O)NCc2cn3c(C)csc3n2)cc1 > 76.9 µM
O=C(CSc1ncnc2c1oc1ccccc12)c1cccs1 > 76.9 µM
CC1(C)CC(CCC(=O)Nc2ccc(S(N)(=O)=O)cc2)C(=O)O1 (centres undefined) > 76.9 µM
O=C(CSc1nnc(CNC(=O)c2cccs2)o1)NCCc1ccccc1 > 76.9 µM
N#Cc1c(/N=C/c2cccs2)sc2c1CCC2
CCOC(=O)c1ccc(NC(=O)CSc2nc(SC)ns2)cc1 > 76.9 µM
Cn1c(=O)[nH]c(=O)c2c1nc(NC1CCCCC1)n2CC(=O)NC1CCCCC1 > 76.9 µM
O=C(c1cc(-c2ccccc2)on1)N1CCN(C(=O)c2ccco2)CC1 > 76.9 µM
CCCN1CN(Cc2ccccc2)CC2=C1CC(C)(C)CC2=O > 76.9 µM
O=C(CSc1nnc(NC(=O)c2ccco2)s1)NC1CCCCC1 > 76.9 µM
Cc1noc(C)c1Cn1nc(C(=O)O)c2ccccc2c1=O > 76.9 µM
CCN1C(=S)SC(=O)C1=C1C=C(C)N(CCO)C(C)=C1 > 76.9 µM
COc1ccc(CN2C(=O)CN(C3CCCCCC3)C(=O)C2c2ccc(OC)c(OC)c2)cc1 (centres undefined) > 76.9 µM
Cc1sc2ncn(CC(=O)N(CC(=O)NC3CCCC3)Cc3cccs3)c(=O)c2c1C > 76.9 µM
Cc1ccc(-n2c(C)nc3oc4ccccc4c(=O)c3c2=O)cc1 > 76.9 µM
CCCS(=O)(=O)N1CCCC(C(=O)NCCCN2CCN(c3ccccc3F)CC2)C1 (centres undefined) > 76.9 µM
Cc1cccc(NC(=O)CSc2nnc(CCCCCNC(=O)OC(C)(C)C)o2)c1C > 76.9 µM
N#Cc1nc(-c2ccc(OCc3ccc(Cl)cc3)cc2)oc1N1CCC(C(N)=O)CC1 > 76.9 µM
COc1ccc(-n2c(SCC#N)nnc2-c2cccnc2)cc1 > 76.9 µM
Cc1cc(NC(=O)CCC2CCCC2)no1 > 76.9 µM
COC(=O)C1=C(C)C(c2ccc(OC)cc2OC)NC(=O)N1 (centres undefined) > 76.9 µM
O=C(Cn1nc(Cl)nc1Cl)c1ccc2c(c1)OCCO2 > 76.9 µM
CCCCC(=O)Nc1ccc(C(=O)N2CCCC(C(=O)OCC)C2)cc1 (centres undefined) > 76.9 µM
CCOC(=O)CN1C(=O)COc2ccc(Cl)cc21 > 76.9 µM
Cc1ccc(Oc2nsnc2N2CCOCC2)cc1 > 76.9 µM
CCN1CCCC1Cn1cnc2c([nH]c3ccc(Cl)cc32)c1=O (centres undefined) > 76.9 µM
Cc1cc(NC(=O)CCC(=O)N(Cc2ccco2)C2(C(=O)NC3CCCCC3)CCN(C)CC2)no1 > 76.9 µM
O=C(O)C1C2CCC(O2)C1C(=O)NCc1ccncc1 (centres undefined) > 76.9 µM
CN=C1SC(CC(=O)Nc2cc(Cl)ccc2Cl)C(=O)N1C (centres undefined) > 76.9 µM
Cc1nnc(SCc2cnc(-c3ccccc3)o2)[nH]c1=O > 76.9 µM
Cc1cc(C)nc(NS(=O)(=O)c2ccc(NC(=O)NC3CCCCC3)cc2)n1 > 76.9 µM
Cc1csc(NC(=O)CNC(=O)OCc2ccccc2)n1 > 76.9 µM
CCOC(=O)c1cc(C(C)=O)c(=O)n(C)c1N > 76.9 µM
CCc1ccc(-c2nn[nH]n2)cc1 > 76.9 µM
CCCOc1ccc(Cc2nn3c(=O)/c(=C/c4ccco4)sc3nc2=O)cc1 > 76.9 µM
O=C(CN(Cc1cccs1)C(=O)CNC(=O)c1ccco1)NC1CCCCC1 > 76.9 µM
COc1ccccc1C(c1nnnn1C1CCCC1)N1CCN2CCCC2C1 (centres undefined) > 76.9 µM
CN1C(=S)SC(/[N+]([O-])=C/c2cccnc2)C1(C)C (centres undefined) > 76.9 µM
CCOC(=O)c1c(NC(=O)CC)sc(C(C)=O)c1C > 76.9 µM
COc1ccc(C(=O)n2cnc(N)n2)cc1 > 76.9 µM
NC(=O)C1CCN(C(c2ccccc2Cl)c2nnnn2Cc2ccc3c(c2)OCO3)CC1 (centres undefined) > 76.9 µM
Cc1ccc(NC2=NC(c3ccco3)n3c(nc(C)cc3=O)N2)c(C)c1 (centres undefined) > 76.9 µM
Cc1ccc(C(=O)Nc2nc3c(s2)CCCC3)o1 > 76.9 µM
Cn1c(=O)n(CC(=O)NC2CCCCC2)c(=O)c2ccccc21
O=c1[nH][nH]c2nc(C(F)(F)F)cc(C(F)(F)F)c12 > 76.9 µM
Cn1c(SCCCC(=O)c2ccccc2)nnc1-c1ccncc1 > 76.9 µM
O=C(COC(=O)c1cccs1)Nc1ccccc1 > 76.9 µM
CC1(C)CC(O)C(C)(C)N1O (centres undefined) > 76.9 µM
Cc1nc2cc(NC(=O)N3c4ccccc4CC3C)ccc2o1 (centres undefined) > 76.9 µM
CC(C)CN(Cc1cc2ccccc2[nH]c1=O)C(=O)c1cccnc1 > 76.9 µM
CC(C)C(c1nnnn1Cc1ccc(F)cc1)N1CCN(C(=O)c2ccco2)CC1 (centres undefined) > 76.9 µM
Cc1ccc(S(=O)(=O)N2CCC(C(=O)N3CCC(C(=O)NCC4CCCO4)CC3)CC2)cc1 (centres undefined) > 76.9 µM
CCCCN(CC)CCNC(=O)C1c2cc(OC)c(OC)cc2C(=O)N2CCc3ccccc3C12 (centres undefined) > 76.9 µM
CN(C)C(CNC(=O)CN1C(=O)NC2(CCc3ccccc32)C1=O)c1ccco1 (centres undefined) > 76.9 µM
Cc1cc(NC(=O)CSc2nnc3c(C)cc4cc(C)c(C)cc4n23)no1 > 76.9 µM
O=C(O)CCC(=O)c1c[nH]c2ccccc12 > 76.9 µM
Cc1nn(Cc2ccc(Cl)c(Cl)c2)c(C)c1NC(=O)c1cc(-c2ccco2)on1 > 76.9 µM
COc1cc(C2C(C#N)=C(N)OC3=C2C(=O)CC(C)(C)C3)ccc1OC(=O)N1CCOCC1 (centres undefined) > 76.9 µM
